Data: article PMC4336329 (PLoS ONE, 2015)
The campaign covered roughly 310,000 compounds. About 2,200 (0.71%) showed an effect of 50% or more. The effect is printed as a negative number. The list shows a part of the results.

Biological target: human ether-à-go-go-related gene (hERG) potassium channel (human, UniProt Q12809)
Experiment: primary screen, population patch clamp on CHO cells stably expressing hERG

Sequence of human ether-à-go-go-related gene (hERG) potassium channel (Q12809 whole entry, looked up): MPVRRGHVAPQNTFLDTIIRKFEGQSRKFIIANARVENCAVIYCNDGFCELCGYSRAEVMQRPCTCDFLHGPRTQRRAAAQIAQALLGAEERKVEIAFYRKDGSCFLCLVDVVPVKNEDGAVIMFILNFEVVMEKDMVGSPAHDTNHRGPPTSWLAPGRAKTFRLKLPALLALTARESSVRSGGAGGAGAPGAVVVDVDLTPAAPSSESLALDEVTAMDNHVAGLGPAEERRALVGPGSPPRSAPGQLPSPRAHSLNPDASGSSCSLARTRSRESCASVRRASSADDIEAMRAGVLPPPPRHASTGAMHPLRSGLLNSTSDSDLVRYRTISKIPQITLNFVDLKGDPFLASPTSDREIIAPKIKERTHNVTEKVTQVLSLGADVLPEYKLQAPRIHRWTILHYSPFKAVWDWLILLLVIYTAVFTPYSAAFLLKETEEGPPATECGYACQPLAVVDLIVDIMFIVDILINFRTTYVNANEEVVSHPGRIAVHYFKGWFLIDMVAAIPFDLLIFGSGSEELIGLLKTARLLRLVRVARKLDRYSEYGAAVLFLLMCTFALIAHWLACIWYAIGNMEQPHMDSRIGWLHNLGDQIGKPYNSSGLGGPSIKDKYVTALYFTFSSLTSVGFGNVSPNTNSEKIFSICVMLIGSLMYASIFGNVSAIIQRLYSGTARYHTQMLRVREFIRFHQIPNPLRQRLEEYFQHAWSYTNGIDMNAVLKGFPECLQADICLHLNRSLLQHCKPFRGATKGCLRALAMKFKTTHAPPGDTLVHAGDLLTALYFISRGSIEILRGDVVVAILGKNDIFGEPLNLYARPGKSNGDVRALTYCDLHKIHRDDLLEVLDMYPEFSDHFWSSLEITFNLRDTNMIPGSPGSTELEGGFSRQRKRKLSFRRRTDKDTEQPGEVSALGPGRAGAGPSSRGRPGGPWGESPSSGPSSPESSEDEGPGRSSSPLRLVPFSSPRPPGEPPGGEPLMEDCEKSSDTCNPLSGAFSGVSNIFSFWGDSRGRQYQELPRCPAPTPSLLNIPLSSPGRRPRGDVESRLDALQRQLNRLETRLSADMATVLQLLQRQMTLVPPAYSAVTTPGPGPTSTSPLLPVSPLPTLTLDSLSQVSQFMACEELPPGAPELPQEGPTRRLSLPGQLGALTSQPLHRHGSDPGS

| Structure (SMILES) | hERG current change (%, negative = inhibition) at 1uM [%] |
| --- | --- |
| O=C(NCCOc1nc(N2CCOCC2)nc(N2CCOCC2)n1)Nc1ccc(Cl)cc1 | 15.9 |
| c1ccc(CCN2CCN=C2Nc2ccccc2)cc1 | 1.68 |
| CCCCC(=O)N/N=C/c1c(O)n(Cc2ccc(F)cc2)c(=O)[nH]c1=O | 13.9 |
| O=C(O)C(=O)O.O=[N+]([O-])c1ccc(Oc2ccc(C(F)(F)F)cn2)cc1 | 9.14 |
| O=c1c(C(c2ccc(Br)cc2)c2c(O)nc3n(c2=O)CCS3)c(O)nc2n1CCS2 | 7.39 |
| Cc1nn(CC2CC2)c(=O)n1-c1ccc(Oc2ccccc2)cc1 | 11.2 |
| COc1ccc(CC2(CO)CCN(Cc3ccncc3)CC2)cc1 | 7.36 |
| CCC(CC)CN1C(Nc2ccccc2)=NC[C@@H]1CC(C)C | -23.5 |
| COc1ccc(Cc2[nH]n3c(=O)cc(C)nc3c2-c2ccccc2)cc1 | 14.3 |
| COc1ccc(N2C(C)=CS/C2=C(/C#N)c2nnc(N3CCOCC3)n2-c2ccccc2)cc1 | 4.17 |
| Cc1c(C(=O)N2CC3(CC(c4cccc(NC(=O)[C@H]5CCC(=O)N5)c4)=NO3)C[C@@H]2C(N)=O)cc([N+](=O)[O-])cc1[N+](=O)[O-] (some centres unmarked) | 9.97 |
| O=C1NCCC/C1=N\Nc1ccc(Br)cc1 | 16.4 |
| COC(=O)Nc1cc([N+](=O)[O-])ccc1OC | 22.4 |
| CCOc1ccccc1C(=O)NCCNC(=O)c1ccccc1OCC | 12 |
| Cc1cc(C)n2c(SCC(=O)Nc3c(C)n(C)n(-c4ccccc4)c3=O)nnc2n1 | 1.38 |
| Cc1ccc(-c2cc(C(=O)Nc3ccccn3)c3ccccc3n2)o1 | 6.73 |
| CCCCNc1ccc(C(CC(N)=O)NC(=O)Cc2ccc(Br)cc2)cc1[N+](=O)[O-] (centres unmarked) | 5.02 |
| COCCCNC(=O)c1c(N)n(/N=C/c2cccs2)c2nc3ccccc3nc12 | 11.2 |
| O=C(Cc1ccc(Cl)cc1)NNS(=O)(=O)c1ccc([N+](=O)[O-])cc1 | 10.7 |

| Structure (SMILES) | hERG current change (%, negative = inhibition) at 1uM [%] |
| --- | --- |
| O=c1cc(N2CCN(c3ccccc3)CC2)[nH]c(=O)n1-c1ccccc1Cl | 0.685 |
| COc1cc(C(c2sc3nc(C)nn3c2O)N2CCc3ccccc3C2)cc(OC)c1OC (centres unmarked) | 9.9 |
| O=C(Nc1ccccc1N1CCN(C(=O)c2ccc(Cl)cc2)CC1)c1cc(Br)ccc1Cl | -5.44 |
| CC(=O)OCCOc1nc(N(C)C)nc(N(C)C)n1 | 7.05 |
| O=c1c2ccccc2sn1-c1ccccc1 | 12.5 |
| Cc1ccc(N(CC(=O)NC2CC3CCC2C3)S(C)(=O)=O)cc1C (centres unmarked) | 1.45 |
| CCOC(=O)CC(N)c1ccc(OC)cc1.Cl (centres unmarked) | 8.64 |
| COc1ccc(OC)c(S(=O)(=O)N2CCCC(C(=O)N3CCCC3)C2)c1 (centres unmarked) | 3.69 |
| CCOc1ccc(OCC)c(S(=O)(=O)N2CCCCC2C)c1 (centres unmarked) | -26.7 |
| COC(=O)/C(C(C)=O)=C(\C=C\N(C)C)N(C)C | 10.5 |
| CC(=O)Nc1cccc(NC(=O)CS(=O)(=O)c2cn(CC(=O)N3CCOCC3)c3ccccc23)c1 | 1.89 |
| O=c1[nH]c(CN2CCN(C/C=C/c3ccccc3)CC2)nc2cc(Cl)ccc12 | -108 |
| CC(Sc1nnc(COc2ccc(Cl)cc2)n1-c1ccccc1)C(=O)O (centres unmarked) | 6.25 |
| COc1ccc(/C=C/C(=O)OCC(=O)NCC2CCCO2)cc1 (centres unmarked) | 8.2 |
| COc1ccc(N(CC(=O)N/N=C/c2ccco2)S(=O)(=O)c2ccccc2)cc1 | 0.535 |
| COCCNC(=S)NCCc1ccc(Cl)cc1Cl | 13.7 |
| CN(C)CCCNC(=S)N1CCN(c2nc(-c3ccccc3)cs2)CC1 | 6.05 |
| COc1cccc2c1OCC(CN1CCN(CCC(C)C)C(CCO)C1)=C2 (centres unmarked) | 10.2 |
| O=C(NCCCN1CCOCC1)c1cc2ccccc2cc1O | 12.4 |

| Structure (SMILES) | hERG current change (%, negative = inhibition) at 1uM [%] |
| --- | --- |
| FC(F)(F)c1nnc2n1N=C(c1cccs1)CS2 | 2.96 |
| CC(Oc1cccc(Br)c1)C(=O)NNC(=O)CCNC(=O)c1ccccc1Cl (centres unmarked) | 6.78 |
| CCN(CC(=O)NCc1ccc(Cl)cc1)C(=O)C(C)Sc1ccccc1 (centres unmarked) | 1.51 |
| CC1=C(C)CS(=O)N(c2ccc(S(N)(=O)=O)cc2)C1 (centres unmarked) | 5.7 |
| CC1CCCCC1NS(=O)(=O)c1ccc2c(c1)CC(=O)N2C (centres unmarked) | 15.6 |
| COCCOC(=O)c1[nH]c2c(c1C)C(=O)CC(c1ccc(OC)c(OC)c1)C2 (centres unmarked) | 6.85 |
| CCS(=O)(=O)Nc1cccc(-c2nc3cccnc3s2)c1 | -5.44 |
| COc1ccc(NC(=O)Nc2cc(C(C)(C)C)on2)cc1OC | 6.45 |
| COc1cc(-c2nnc(SCC(=O)N3c4ccccc4Sc4ccccc43)o2)cc(OC)c1OC | 12.2 |
| CN(C(=O)CSc1nnc(-c2ccco2)n1N)C1CCCCC1 | 1.29 |
| Cc1cc(NC(=O)CSc2nc3c(c(=O)n2-c2ccc(Br)cc2)SCC3)no1 | 6.41 |
| O=C(c1ccc(=O)[nH]c1)N1CCN(S(=O)(=O)c2cc(C(F)(F)F)ccc2Cl)CC1 | 4.55 |
| C/C(=N\NC(=O)CN1CCN(Cc2ccc(C)cc2)CC1)c1ccncc1 | -77.9 |
| Cc1ccc2cc(CCNC(=O)c3ccc(Br)o3)c(=O)[nH]c2c1 | 0.341 |
| COc1ccc(OCc2cc(C(=O)N3CCOCC3)no2)c(Cl)c1 | 9.25 |
| O=C(O)c1cc(S(=O)(=O)Nc2ccc3oc(=O)sc3c2)ccc1O | 8.09 |
| CNC(=O)NC(=S)NC(=O)c1ccccc1Cl | 6.42 |
| Cl.O=C(O)c1ccc(Nc2ncnc3ccccc23)cc1 | 9.68 |
